Publication PMC9911399, “Two distinct binding modes provide the RNA-binding protein RbFox with extraordinary sequence specificity”
Positions count from the first letter of the chain named. The list shows a part of the results.

T1: RBFOX1 RRM (Homo sapiens, UniProt Q9NWB1 109-208)
T1 sequence: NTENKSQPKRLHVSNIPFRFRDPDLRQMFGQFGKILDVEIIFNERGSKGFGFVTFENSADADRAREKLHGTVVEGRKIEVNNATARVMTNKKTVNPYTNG

B1: UCUCCGG (DNA:RNA)
RNA: GGGAGACCGGAAUUCAGAUUGUCCUCUCCGGUUAAAUCCCGUCGUAGCCACCA
DNA 1: CAATCTGAATTCCGGTCTCCC
DNA 2: TGGTGGCTACGACGGGATT
B2: GAUCGUU (DNA:RNA)
RNA: B1 RNA with U25G, C26A, C29G, G30U, G31U
DNA 1: CAATCTGAATTCCGGTCTCCC
DNA 2: TGGTGGCTACGACGGGATT
B3: CGCGCCU (DNA:RNA)
RNA: B1 RNA with U25C, C26G, U27C, C28G, G30C, G31U
DNA 1: CAATCTGAATTCCGGTCTCCC
DNA 2: TGGTGGCTACGACGGGATT
B4: AAGCACC (DNA:RNA)
RNA: B1 RNA with U25A, C26A, U27G, C29A, G30C, G31C
DNA 1: CAATCTGAATTCCGGTCTCCC
DNA 2: TGGTGGCTACGACGGGATT
B5: GUGUCGA (DNA:RNA)
RNA: B1 RNA with U25G, C26U, U27G, C28U, G31A
DNA 1: CAATCTGAATTCCGGTCTCCC
DNA 2: TGGTGGCTACGACGGGATT
B6: AUCAGGA (DNA:RNA)
RNA: B1 RNA with U25A, C26U, U27C, C28A, C29G, G31A
DNA 1: CAATCTGAATTCCGGTCTCCC
DNA 2: TGGTGGCTACGACGGGATT
B7: GCGUAGG (DNA:RNA)
RNA: B1 RNA with U25G, U27G, C28U, C29A
DNA 1: CAATCTGAATTCCGGTCTCCC
DNA 2: TGGTGGCTACGACGGGATT
B8: UAGCAGU (DNA:RNA)
RNA: B1 RNA with C26A, U27G, C29A, G31U
DNA 1: CAATCTGAATTCCGGTCTCCC
DNA 2: TGGTGGCTACGACGGGATT
B9: UAACACG (DNA:RNA)
RNA: B1 RNA with C26A, U27A, C29A, G30C
DNA 1: CAATCTGAATTCCGGTCTCCC
DNA 2: TGGTGGCTACGACGGGATT
B10: CCCGCUG (DNA:RNA)
RNA: B1 RNA with U25C, U27C, C28G, G30U
DNA 1: CAATCTGAATTCCGGTCTCCC
DNA 2: TGGTGGCTACGACGGGATT
B11: GGAGGAC (DNA:RNA)
RNA: GGGAGACCGGAAUUCAGAUUGUCCGGAGGACUUAAAUCCCGUCGUAGCCACCA
DNA 1: CAATCTGAATTCCGGTCTCCC
DNA 2: TGGTGGCTACGACGGGATT
B12: CAACUUC (DNA:RNA)
RNA: B11 RNA with G25C, G26A, G28C, G29U, A30U
DNA 1: CAATCTGAATTCCGGTCTCCC
DNA 2: TGGTGGCTACGACGGGATT
B13: GUGUGUG (DNA:RNA)
RNA: B11 RNA with G26U, A27G, G28U, A30U, C31G
DNA 1: CAATCTGAATTCCGGTCTCCC
DNA 2: TGGTGGCTACGACGGGATT
B14: AAAUCAG (DNA:RNA)
RNA: B11 RNA with G25A, G26A, G28U, G29C, C31G
DNA 1: CAATCTGAATTCCGGTCTCCC
DNA 2: TGGTGGCTACGACGGGATT
B15: UCGCGAC (DNA:RNA)
RNA: B11 RNA with G25U, G26C, A27G, G28C
DNA 1: CAATCTGAATTCCGGTCTCCC
DNA 2: TGGTGGCTACGACGGGATT
B16: UGCAUUC (DNA:RNA)
RNA: B11 RNA with G25U, A27C, G28A, G29U, A30U
DNA 1: CAATCTGAATTCCGGTCTCCC
DNA 2: TGGTGGCTACGACGGGATT
B17: AUGACCU (DNA:RNA)
RNA: B1 RNA with U25A, C26U, U27G, C28A, G30C, G31U
DNA 1: CAATCTGAATTCCGGTCTCCC
DNA 2: TGGTGGCTACGACGGGATT
B18: AGACUCC (DNA:RNA)
RNA: B11 RNA with G25A, G28C, G29U, A30C
DNA 1: CAATCTGAATTCCGGTCTCCC
DNA 2: TGGTGGCTACGACGGGATT
B19: GUGAGGU (DNA:RNA)
RNA: B11 RNA with G26U, A27G, G28A, A30G, C31U
DNA 1: CAATCTGAATTCCGGTCTCCC
DNA 2: TGGTGGCTACGACGGGATT
B20: CAAUCGC (DNA:RNA)
RNA: B11 RNA with G25C, G26A, G28U, G29C, A30G
DNA 1: CAATCTGAATTCCGGTCTCCC
DNA 2: TGGTGGCTACGACGGGATT

Target: T1, RBFOX1 RRM
Test: EMSA; HiTS-Eq, 1 nM pool, 10 min; buffer printed only for the single-RNA assays: 10 mM Tris pH 7.5, 150 mM NaCl, 3.4 mM EDTA, 0.001% NP-40, 30 C
Settings: tags: His6 N-terminal (pET28a); label: 5' 32P
Method in brief: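 Purified RbFox RRM (wild type or mutant) was equilibrated for 10 min in 50 µL with 1 nM of a 5′-radiolabelled pool of RNA with 7 randomized nucleotides, its flanks annealed to DNA oligonucleotides, across increasing protein concentrations. Free RNA was separated by 8% native PAGE, excised, reverse-transcribed, PCR-barcoded and sequenced on an Illumina HiSeq 2500. Relative association constants came from read-count changes of each variant against the control reaction, normalised to the cognate motif.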

Row | Binder | binding signal
1 | B1 | 0.0159 KA relative to UGCAUGU
2 | B2 | 0.0149 KA relative to UGCAUGU
3 | B3 | 0.0116 KA relative to UGCAUGU
4 | B4 | 0.00479 KA relative to UGCAUGU
5 | B5 | 0.0182 KA relative to UGCAUGU
6 | B6 | 0.00195 KA relative to UGCAUGU
7 | B7 | 0.0115 KA relative to UGCAUGU
8 | B8 | 0.0129 KA relative to UGCAUGU
9 | B9 | 0.00641 KA relative to UGCAUGU
10 | B10 | 0.013 KA relative to UGCAUGU
11 | B11 | 0.00695 KA relative to UGCAUGU
12 | B12 | 0.00358 KA relative to UGCAUGU
13 | B13 | 0.0282 KA relative to UGCAUGU
14 | B14 | 0.00495 KA relative to UGCAUGU
15 | B15 | 0.00468 KA relative to UGCAUGU
16 | B16 | 0.0105 KA relative to UGCAUGU
17 | B17 | 0.00461 KA relative to UGCAUGU
18 | B18 | 0.00645 KA relative to UGCAUGU
19 | B19 | 0.0137 KA relative to UGCAUGU
20 | B20 | 0.0059 KA relative to UGCAUGU
